Here are results for 88 molecules from publication PMC4336329 (PLoS ONE, 2015).

About 14,000 (4.5%) of roughly 310,000 compounds showed an effect of 50% or more. The effect is printed as a negative number. The list shows a part of the results.
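Further: peak tail current of the secondary pulse compared with the same well before compound.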

Sequence of human ether-à-go-go-related gene (hERG) potassium channel (Q12809 whole entry, looked up): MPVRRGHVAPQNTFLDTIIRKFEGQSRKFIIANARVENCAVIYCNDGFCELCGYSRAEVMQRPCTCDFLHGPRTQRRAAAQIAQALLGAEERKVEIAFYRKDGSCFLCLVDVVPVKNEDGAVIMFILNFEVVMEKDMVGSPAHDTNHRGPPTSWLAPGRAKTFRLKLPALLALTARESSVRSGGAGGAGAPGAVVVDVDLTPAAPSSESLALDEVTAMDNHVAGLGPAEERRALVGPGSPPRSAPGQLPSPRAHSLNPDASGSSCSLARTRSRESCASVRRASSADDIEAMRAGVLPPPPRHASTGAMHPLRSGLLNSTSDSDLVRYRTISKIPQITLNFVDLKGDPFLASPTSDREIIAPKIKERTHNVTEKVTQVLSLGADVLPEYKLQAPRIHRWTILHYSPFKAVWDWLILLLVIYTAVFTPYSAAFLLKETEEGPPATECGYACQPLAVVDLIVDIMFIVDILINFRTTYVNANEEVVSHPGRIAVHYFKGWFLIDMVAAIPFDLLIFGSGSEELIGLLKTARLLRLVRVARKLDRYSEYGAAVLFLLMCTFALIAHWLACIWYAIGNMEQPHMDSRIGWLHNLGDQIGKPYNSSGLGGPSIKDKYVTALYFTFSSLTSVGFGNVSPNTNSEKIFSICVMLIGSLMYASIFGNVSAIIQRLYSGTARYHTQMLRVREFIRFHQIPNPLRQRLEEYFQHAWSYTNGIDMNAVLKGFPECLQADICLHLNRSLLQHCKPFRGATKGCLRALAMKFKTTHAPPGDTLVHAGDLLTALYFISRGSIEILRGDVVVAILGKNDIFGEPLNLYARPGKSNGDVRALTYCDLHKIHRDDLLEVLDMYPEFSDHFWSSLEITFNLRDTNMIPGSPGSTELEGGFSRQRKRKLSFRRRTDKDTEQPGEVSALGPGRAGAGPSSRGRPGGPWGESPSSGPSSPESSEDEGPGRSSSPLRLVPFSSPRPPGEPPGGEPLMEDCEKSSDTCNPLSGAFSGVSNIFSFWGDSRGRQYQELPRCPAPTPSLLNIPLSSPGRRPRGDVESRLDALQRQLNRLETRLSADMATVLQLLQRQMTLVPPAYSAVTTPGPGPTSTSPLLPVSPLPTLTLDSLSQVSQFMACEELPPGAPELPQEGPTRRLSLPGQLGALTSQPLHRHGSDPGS

This experiment concerns the target human ether-à-go-go-related gene (hERG) potassium channel (human, UniProt Q12809). The experiment is described as follows: primary screen, population patch clamp on CHO cells stably expressing hERG.
For `COc1ccc(C(OC(=O)c2c(C)noc2C)C(=O)NC2CCCC2)cc1` (stereo not shown), the “hERG current change (%, negative = inhibition) at 10uM” value is reported as -2.68%.
With `COc1ccc(/C=N\N=C2/SC(CC(=O)O)C(=O)N2c2ccc(O)cc2)cc1OC` (stereo not shown) the figure was -0.927%; with `CCOC(=O)C1=C(CNCCOc2ccc(OC)cc2)NC(=O)NC1c1ccc2c(c1)OCO2` (stereo not shown), -11.6%.
In the case of `CCc1cc2c(NCCC(=O)O)nc(C)nc2s1`, the “hERG current change (%, negative = inhibition) at 10uM” value came to 24.2%.
With `CCOc1ccccc1N1CCN(C(=S)NCc2ccco2)CC1` the figure was -14.7%.
With `CC(=O)Oc1ccc(C(=O)Nc2cc(C)ccc2NC(=O)COc2ccccc2)cc1` the figure was 6.98%; with `Cc1ccc(-n2c(N)c(C(=O)N3CCN(C)CC3)sc2=S)cc1`, -30.4%.
For `COc1ccc(NC(=O)Nc2ccc(N3CCCC3=O)cc2)cc1OC`, the “hERG current change (%, negative = inhibition) at 10uM” value is 6.13%.
The figure for `CC(/C=C/c1ccccc1)=N\NC(=O)C1CC1(C)c1ccccc1` (stereo not shown) is -2.18%; for `Cc1nc(CS(=O)(=O)c2ccccc2)cc(N2CCOCC2)n1` it is 1.36%; for `COc1ccc(C(=O)NCc2ccon2)cc1OC1CCN(C(C)C)CC1` it is -45.6%.
Take `COc1cc(C(c2c(C)[nH][nH]c2=O)c2c(C)[nH][nH]c2=O)cc(OC)c1OC`: the “hERG current change (%, negative = inhibition) at 10uM” value is recorded as 12.2%.
The figure for `C/C(=N\Nc1ccc(Cl)c(Cl)c1)c1ccc(-n2ccnc2)cc1` is -2.92%.
Consider `CCOc1ccc(S(=O)(=O)N2CCCCC2)c2ccccc12`, for which the “hERG current change (%, negative = inhibition) at 10uM” value was determined as 4.71%.
With `O=c1[nH]c2cc3c(cc2cc1CN(Cc1nnnn1C1CCCC1)C1CCCC1)OCCO3` the figure was -7.16%; with `COc1ccc(NC(C)=O)cc1S(=O)(=O)NC(Cc1ccccc1)C(=O)O` (stereo not shown), 6.11%.
With `COc1cccc(CN2CCCCC2C(=O)O)c1` (stereo not shown) the figure was 8.05%.
With `CCOC(=O)C1=C(COC(=O)CCOc2ccc(OC)cc2)NC(=O)NC1C` (stereo not shown) the figure was -4.43%.
`Cc1nnc(SCc2nc3ccccc3[nH]2)s1`: the “hERG current change (%, negative = inhibition) at 10uM” value is -11.2%.
With `O=C1SC(c2ccccc2)=C/C1=C\N1CCCCC1` the figure was -14%; with `O=C(CCSc1ccccc1)N1CCN(c2ccccc2)CC1`, -19.9%; with `COc1ccc(N2C(=O)CC(NC3CC3)C2=O)cc1` (stereo not shown), 12.5%.
With `CCOc1ccc(N(CC(=O)Nc2ccccc2F)S(=O)(=O)c2c(C)[nH]c(=O)[nH]c2=O)cc1` the figure was 15.2%; with `Cc1ccsc1C(=O)C1CCCN(Cc2cnc(N3CCOCC3)s2)C1` (stereo not shown), -33.1%.
`O=C(Oc1c(CN2CCOCC2)cc(Cl)c2cccnc12)c1ccccc1F`: the “hERG current change (%, negative = inhibition) at 10uM” value was -8.38%.
With `COCCCC1CCN(C(=O)c2cc(COc3ccc(C)nc3)on2)CC1` the figure was 0.809%; with `CN1CCN(C(=O)CC2C(=O)NCCN2Cc2ccc(-c3ccccc3)cc2)CC1` (stereo not shown), 2.25%.
The figure for `CC(=O)c1cccc(NC(=O)COC(=O)CC2CC3CCC2C3)c1` (stereo not shown) is -15.6%; for `O=C(Nc1ccc(F)cc1F)Nc1csc2ccccc12` it is 19.2%; for `O=C(Nc1ccnc(-c2cccnc2)n1)c1cccs1` it is -23%.
With `COc1ccc(NC(=O)C2C3C=CC4(O3)C2C(=O)N(CCN2CCCCC2C)C4C(=O)NC2CCCC(C)C2C)cc1` (stereo not shown) the figure was -22.4%.
For `CN1C(=O)NC(c2cccc(O)c2)C(C(=O)c2cccs2)C1(O)C(F)(F)F` (stereo not shown), the “hERG current change (%, negative = inhibition) at 10uM” value is on record as 9.55%.
The figure for `O=c1c2cnn(-c3ccccc3)c2nc(-c2cccs2)n1-c1cccc(Cl)c1` is 13.6%; for `Cc1ccc(-c2csc(N3CCN(c4cc5c(cc4Cl)nc(-c4ccncc4)n5CCN4CCCCC4)CC3)n2)cc1` it is 10.5%; for `CN1CCN(C(=O)/C(=C/c2cn(S(=O)(=O)N(C)C)c3ccccc23)NC(=O)c2ccccc2Cl)CC1` it is 20.2%.
As for `O=C(OCC(=O)N1CCCCC1)c1cc2ccccc2cc1O`, the “hERG current change (%, negative = inhibition) at 10uM” value worked out at 4.06%.
With `O=C(Cc1ccccc1)Nc1cccc(NC(=O)c2ccccc2)c1` the figure was 10.2%; with `Nc1ccc(S(=O)(=O)[O-])c[nH+]1`, 4.6%.
The figure for `COc1ccc(C2(c3ccc(OC)cc3)NC(=O)N(CC(=O)N(C)c3ccccc3)C2=O)cc1` is 14.7%.
With `CC(C)Oc1ccc(S(=O)(=O)N2CCCCC2)cc1NC(=O)CN1C(=O)NC2(CCCC2)C1=O` the figure was -2.87%; with `Cc1ccc(S(=O)(=O)CCC(=O)OCC(=O)NCc2ccccc2)cc1`, -10.8%; with `Cc1nn(C(=O)c2ccco2)c(C)c1Sc1ccc(Br)cc1`, -4.64%.
As to `CC1(C)CC(NC(=O)CCc2nnc(CCCCc3ccccc3)o2)CCO1` (stereo not shown), the “hERG current change (%, negative = inhibition) at 10uM” value is 13.8%.
Take `O=C(CCl)Nc1sccc1C(=O)c1ccccc1`: the “hERG current change (%, negative = inhibition) at 10uM” value was found to be 4.71%.
The figure for `O=C1CS/C(=C\[N+](=O)[O-])N1c1ccccc1` is -2.96%; for `CC(=O)Nc1ccc(S(=O)(=O)NCC2CCC(C(=O)NCCC3=CCCCC3)CC2)cc1` (stereo not shown) it is -7.16%.
The figure for `O=S1(=O)CC(NCc2ccccc2)C(Nc2ccc(Cl)cc2)C1` (stereo not shown) is -14.4%; for `Clc1cccc(-c2nc3nc4ccccc4nc3n2Cc2ccco2)c1` it is -28.9%; for `CCC(C(=O)Nc1cc(C(=O)O)ccc1C)c1ccccc1` (stereo not shown) it is 15%.
The figure for `CC(C)n1c(CN(C)Cc2ccccc2)nc2c1c(=O)n(C)c(=O)n2C` is 11.4%; for `CS(=O)(=O)c1ccc(C(=O)OCC(=O)N2CCCc3ccccc32)cc1` it is -2.78%; for `NS(=O)(=O)c1ccc(O)c(NC(=O)c2ccc([N+](=O)[O-])o2)c1` it is 10.8%.
For `COc1ccccc1C(=O)Nc1ccc2nc3n(c(=O)c2c1)CCCC3`, the “hERG current change (%, negative = inhibition) at 10uM” value is listed as -36.3%.
The figure for `COc1cc(NC(=O)CSc2nnc(-c3ccncc3)o2)cc(OC)c1OC` is 22.4%.
Take `S=c1nc2ccccc2c2nc(-c3ccccc3Cl)[nH]n12`: the “hERG current change (%, negative = inhibition) at 10uM” value is on record as 19.2%.
The figure for `Cc1nnc(NC(=O)CSc2nc3ccccc3o2)s1` is 25.2%.
The figure for `COc1ccc(C(O)C(CC(=O)NCCCOC(C)C)C(=O)NCCCOC(C)C)cc1OC` (stereo not shown) is 11%; for `Oc1cccc2ccc(/C=C/c3ccccc3Br)nc12` it is 25.3%.
With `O=c1cc(CN2CCCCC2)nc(C2CC2)[nH]1` the figure was -2.2%; with `Cc1cc(NC(=O)c2c(Cl)cnn2C)no1`, 8%.
For `CCOC(=O)C1=C(CSc2n[nH]c(N)n2)NC(=O)NC1C` (stereo not shown), the “hERG current change (%, negative = inhibition) at 10uM” value stood at 3.79%.
With `CC12CN3CC(C)(CN(C1)C31CCSCC1)C2=O` the figure was 16.3%; with `COC(=O)C1=C2SC(C)C(=O)N2C(N)=C(C#N)C1c1ccc(OC)c(OC)c1` (stereo not shown), -17.2%.
With `COc1ccc(CNC(=O)c2cccc(NC3=NC4CS(=O)(=O)CC4S3)c2)cc1` (stereo not shown) the figure was 6.27%.
`COCCOc1ccc(C(F)(F)F)cc1NC(=O)COC(=O)c1cc[n+]([O-])cc1`: the “hERG current change (%, negative = inhibition) at 10uM” value is listed as -34.7%.
With `COc1ccc(C(=O)NCc2c(CC(C)C)oc(C)c2C(=O)O)cc1` the figure was 7.66%; with `Cc1cc(O)cc(O)c1-c1onc(C(F)(F)F)c1-c1cscn1`, 7.85%; with `Cc1ccc(Cl)cc1-n1ncc2c(NNC(=O)c3ccco3)ncnc21`, 3.6%.
The figure for `Cc1nonc1OC(C)CNc1ccc([N+](=O)[O-])cc1` (stereo not shown) is -58.7%; for `CCCNS(=O)(=O)c1ccc(N2CCCC2=O)c([N+](=O)[O-])c1` it is 1.22%; for `COc1cccc2cc(C(=O)NCCN3CCOCC3)oc12` it is 15.4%.
With `CC(=O)Nc1ccc(NC(=O)c2cc(-c3ccc(C)cc3O)n[nH]2)cc1` the figure was 19.3%; with `O=C(CCN1C(=O)C2C3C=CC(C3)C2C1=O)N1CCN(c2ccccc2F)CC1` (stereo not shown), -4.87%; with `O=C(NCCc1ccccc1Cl)C1CC(=O)N(C2CCCCC2)C1` (stereo not shown), -4.43%.
Consider `COC(=O)c1ccc(CNC(=O)COC(=O)Cc2ccsc2)cc1`, for which the “hERG current change (%, negative = inhibition) at 10uM” value is listed as -6.64%.
With `CCC1CCCCN1CCCNC(=O)c1ccc(N2CCOCC2)c(NS(=O)(=O)c2ccc(OC)cc2)c1` (stereo not shown) the figure was -57.6%; with `COc1c(F)c(F)c(C(=O)O)c(Nc2ccccc2)c1F`, -3.79%.
The figure for `O=C(/C=C/c1ccccc1[N+](=O)[O-])NCc1ccc(Cl)cc1` is 4.15%; for `CCSc1nnc(NC(=O)C(C(F)(F)F)C(F)(F)F)s1` it is -3.7%; for `Cc1cccn2c(=O)nc(SCC(=O)NCc3ccc(F)cc3)nc12` it is -26.1%.
With `Cc1cc(O)ccc1NS(=O)(=O)c1ccc2c3c(cccc13)C(=O)N2` the figure was -14.6%; with `CCOc1ccc(Nc2cc(C)nc(N3CCOCC3)n2)cc1`, 0.875%.
Regarding `Cn1c(SCc2c(F)cccc2Cl)nnc1-c1cccs1`, the “hERG current change (%, negative = inhibition) at 10uM” value is -30.8%.
As for `CCOC(=O)C1(CCc2ccccc2)CCN(Cc2c(O)cccc2OC)CC1`, the “hERG current change (%, negative = inhibition) at 10uM” value is reported as -95.1%.
With `CCC(=O)N(Cc1cc2cc(OC)ccc2[nH]c1=O)c1ccccc1C` the figure was -4.22%.
The figure for `CCOC(=O)/C=C/c1ccc2c(c1)S(=O)(=O)N(Cc1ccc(OC)cc1)[C@H]2CC(=O)OCC` is -18.2%; for `CC1=CC(C)C(C[N+]2(C)CCCCC2)C(C)C1.[I-]` (stereo not shown) it is 15.5%.
Turning to `CCCCN(C)C(=O)Cn1c(=O)oc2cc(S(=O)(=O)N3CC(C)CC(C)C3)ccc21` (stereo not shown), the “hERG current change (%, negative = inhibition) at 10uM” value is -21.2%.
